Test results as given in the supplement of paper PMC11417369.
± gives the standard deviation of the averaged measurements. This is one part of the list.

System: PfAP2-EXP AP2 domain (GST-tagged)
Assay: gcPBM binding intensity (ln(normalized median fluorescence intensity)); higher = stronger DNA binding
Method in brief: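 Probes on an Agilent 4 × 180k array were primer-extended, double-stranded and 36 bp long, taken from intergenic genomic regions, with negative controls added. GST-tagged P. falciparum DNA-binding domains from E. coli, about 25 μg on average, were applied to the array for 1 h in 1× PBS containing 1% milk, 0.2 mg/ml BSA, 0.5% salmon testes DNA and 0.03% Triton X-100. Binding intensity, obtained after Alexa488 anti-GST antibody detection and a 488 nm scan, is the highest Masliner-normalised natural-log median intensity across replicate spots of either probe orientation.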

Sequence	gcPBM binding intensity (ln)
GTATTATACCATAATGCATGTTAACTTCAAAAGAAA [TGCATGCA_site839]	8.69 ± 0.52
GAAATTATTATATAAACACACATTTATTTTATTTTA [CACACA_site1957]	8.21 ± 0.36
ATAACATAACATAATACACACATATAAAAAAGAAAT [CACACA_site3028]	9.04 ± 0.67
ATATAATATATTTTCACACATATTTTATGATGATAA [CACACA_site5614]	8.3 ± 0.42
AAAAAAAAAAAAAAAGGTACAGTAAAAAATTCCTCT [XGTACX_site5947]	8.43 ± 0.14
AAATTTAATTTTATATCACACATTAAATTTTAATGG [CACACA_site4251]	8.4 ± 0.45
TATTCTATAAATATATTTTTTTAATTTTTTATTTTA [CACACA_negctrl_site307]	8.27 ± 0.34
TATGTAAAAAGAGAAAAAAAAAAGAACGATAATTTC [CACACA_negctrl_site946]	8.68 ± 0.49
ATATAAGAATTTAAGAGTACATTCACTTCAAATTTA [XGTACX_site2115]	8.26 ± 0.43
AGGTGTATCATAAAATGTACATACATACATACATAA [XGTACX_site4479]	8.46 ± 0.38
TATTATTATTTTTTATGTACTAACGACAAAAATATT [XGTACX_site252]	8.47 ± 0.3
AAAATGTGCTTTTCAGTGCAATTTTTTTTGTAATAA [GTGCAC_site9566]	8.2 ± 0.22
TTGTAATTCATTCAAATATAAAATAAATAAATATGA [CACACA_negctrl_site349]	8.28 ± 0.34
TACATCGGTATATAAACACACAACAAAAATGCTTAC [CACACA_site5983]	8.64 ± 0.52
AAAATAATTAAAAAAAGTACTCGTAATATAAATATA [XGTACX_site4967]	8.7 ± 0.45
ACAAATAAATAAAAATGTACAAATGAATACATCTTA [XGTACX_site3780]	8.19 ± 0.29
TTAAAAGATATTACATGTACATATTCAATATATGTA [XGTACX_site5895]	8.24 ± 0.35
TTTTTTTAAAAAAACAAAAAAAAAAAAAATATAAAA [TGCATGCA_negctrl_site511]	8.23 ± 0.45
TTTGTTATTTATTAGTGTACAAAAAAGCATTTCAAA [XGTACX_site8729]	8.44 ± 0.3

Sequence	gcPBM binding intensity (ln)
AAATTAAATAAATTTACACACTAAAAGTTACCTATA [CACACA_site6623]	8.15 ± 0.38
AAAAAAAAAAAAAAAAAAAAAAAAAAAAAAAAAAAT [CACACA_negctrl_site882]	9.25 ± 0.16
TACATTTATAATAATACACACATAAATTTACATTTT [CACACA_site3463]	8.35 ± 0.3
TATGAAAATTAAGTTTGTACACAAGTGGAAAAAAAA [XGTACX_site6129]	8.61 ± 0.28
ATATAAAGAAATTAATTTTTCAACAATAAAAATATA [CACACA_negctrl_site1262]	8.27 ± 0.42
AATAATGTATAATGATGTACAAAAAAGGAAGACATA [XGTACX_site2474]	9.1 ± 0.53
ATATTTTGTAATATTTGTACATATATTATACATATA [XGTACX_site963]	8.49 ± 0.36
TTTTTTTTGCGTACAGTGCAAATTTATTTACTATTC	8.84 ± 0.2
AAATATAATAATATATGTACATATATATATATATAT [XGTACX_site6980]	10.1 ± 0.3
AAAAAAATATATATATATATATATATATATATATAT [TGCATGCA_negctrl_site7]	10.1 ± 0.26
CGTGGGAGCGGACACACACACACACCCATATATATA [CACACA_site4340]	8.7 ± 0.13
TCAACAAATAAACTTTGTACATATATACAAAATATA [XGTACX_site4447]	8.35 ± 0.48
AATTTAAAAGCTTGTGGTACTTTTGCTCTTCCTTTG [XGTACX_site3148]	8.64 ± 0.59
TATACATATTATATATGTACACATATTATATGTATA [XGTACX_site5851]	8.27 ± 0.15
TATGTATTAAATTTTACACACATGATTCTCTATATG [CACACA_site8720]	8.62 ± 0.64
ATGAATTATATATTATGTACATATAATTAAAATATA [XGTACX_site7140]	8.34 ± 0.16
TTTAAAAAAAAAAAAAAAAATTAAATGAATTATTAA [CACACA_negctrl_site1121]	7.71 ± 0.49
TAACATGATATATAATGTACATATAAGATATTTATA [XGTACX_site4383]	8.42 ± 0.3
ATACAAAAAAGAAGGACACACAGAAGTAACATGTTA [CACACA_site3074]	9.06 ± 0.59

Sequence	gcPBM binding intensity (ln)
ATATATATATATGTATGTACGTATGTATTTACTGCT [XGTACX_site3839]	9.8 ± 0.26
TCCAATATATTTATGAGTACTTATAAATTATACGTT [XGTACX_site742]	8.64 ± 0.29
TTCATACATATTTGAAGTACATTTAAAAATGTCCTT [XGTACX_site747]	8.56 ± 0.19
GAAGTAATTTCATATACACACATATACATACATACA [CACACA_site6753]	8.96 ± 0.31
TTTGAATAAAAACAAAAAATTAAATTAAATTAAATA [CACACA_negctrl_site312]	8.15 ± 0.5
ATTGTGTTAATAAAATGTACATTTTCTCTACATTAA [XGTACX_site2766]	8.71 ± 0.38
TATTTATAATTATAATAATATATATATATATATATA [TGCATGCA_negctrl_site173]	9.97 ± 0.28
ATTAAATAAAAAAACACACACATATATACCTATATA [CACACA_site5837]	8.54 ± 0.46
AATAAAACATAATAATGTACTCAAAGGTTTAACTTG [XGTACX_site4711]	8.48 ± 0.41
CAAAACATTTTATCTACACACATATATAAATAAATA [CACACA_site3220]	8.36 ± 0.33
AACGTGTGGAGAATTATAAATGAGTAAAAAATATAT [XGTACX_negctrl_site562]	8.96 ± 0.37
AAAATAAAAGAATAAAAATATGAAACTTTTTTAAAA [GTGCAC_negctrl_site348]	8.12 ± 0.43
GGGGGGAGGGTGAATACACACGTAATAATCATAAAC [CACACA_site8502]	10.6 ± 0.22
ATATATGTGTATGTATGTACTTATATTTTTTTTTAT [XGTACX_site1733]	8.37 ± 0.33
TCCGTTATATATGTGTGTACATATAATATATCCTCA [XGTACX_site2588]	8.65 ± 0.36
GCAAATCAATTTTTTTTTAAAACTCATTTTTTCGTT [CACACA_negctrl_site1136]	8.79 ± 0.41
AAAAATGAAAGTAAGACATGCATGGAATTTTTTTTA [TGCATGCA_site347]	9.06 ± 0.47
TTTTTTTTTTATGAAAGTACATATGAAAAATACGAA [XGTACX_site3451]	8.71 ± 0.21
